Assay results as given in PubChem BioAssay AID1347417 (National Center for Advancing Translational Sciences (NCATS), 2020).
Hit rate of the full screen: of about 120,000 compounds, about 5,300 (4.4%) were called active. This list was built around the results that the source calls inconclusive (neither active nor inactive); the mix of calls is not that of the screen. The call rests on the fitted dose curve; in most records, active means well fitted inhibition curve with a large enough effect; inconclusive means small, poorly fitted or top-dose-only effect; inactive means no such curve, though single readings can be large or run the other way. Potencies beside an inconclusive call are fits to weak or partial responses and may not hold up.

assay: qHTS Primary assay for Inhibitors of Plasmodium falciparum Dd2 growth in vitro; further: nearly all actives have a fitted effect of over 65% in size; settings: P. falciparum Dd2 growth, SYBR Green, 72 h; series mostly up to 28.9 µM
In short: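 Infected erythrocytes (Dd2, 0.3% parasitemia, 2.5% hematocrit final) are added to compound in RPMI-1640/Albumax II medium, grown 72 h at 37C in low oxygen, then lysed with saponin/Triton-X containing SYBR Green and read by fluorescence.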
Potency means the concentration at half of the fitted maximal effect; tags describe the fitted curve by direction and shape.

**Q.** With `O=C(NCCc1noc(-c2ccccc2)n1)c1ccc(Cl)s1` as the compound, how does the Potency read?
**A.** The Potency was “inactive”.

**Q.** With `COCC1CN(C2CCC2)CC12CCN(C(=O)c1ccc(OC)cc1C)CC2` (stereo unspecified) as the compound, how does the Potency read?
**A.** Its Potency is inconclusive: 3.98 µM [inhibitor, partial curve].

**Q.** For `Cc1ccccc1N1CCN(C(=O)c2ccc(Cn3ccn4nc5c(c4c3=O)CCCC5)cc2)CC1`, which Potency is on record?
**A.** Its Potency is inconclusive: 4.47 µM [inhibitor, partial curve, poor fit].

**Q.** With `O=C1c2[nH]nc(-c3ccccc3O)c2C(c2cccc(OCc3ccccc3)c2)N1CCCO` (stereo unspecified) as the compound, how does the Potency read?
**A.** Its Potency is active: 11.2 µM.

**Q.** With `CNC(=O)[C@H]1C[C@H](Oc2ccccc2)CN1C(=O)CCc1ccc(OC)cc1` as the compound, how does the Potency read?
**A.** The Potency was “inactive”.

**Q.** Which Potency does the source give for `CCC(=O)N1CCN(C2CCN(Cc3ccccn3)C2=O)CC1` (stereo unspecified) here?
**A.** The Potency was inconclusive: 0.708 µM [inhibitor, full curve].

**Q.** With `COc1ccc(Cn2c(SCc3ccc(C(=O)NC4CCCCC4)cc3)nc3ccncc32)cc1` as the compound, how does the Potency read?
**A.** Its Potency is active: 7.94 µM.

**Q.** Which Potency does the source give for `O=C(COc1ccc(-c2nnc3n2CCCC3)cc1)Nc1cccc(Br)c1` here?
**A.** Its Potency is inconclusive: 0.355 µM [inhibitor, full curve, poor fit].

**Q.** With `CCN(CC)Cc1cnc2c(C(=O)N3CCCN4CCC[C@H]4C3)cnn2c1` as the compound, how does the Potency read?
**A.** The Potency was “inactive”.

**Q.** With `O=C(c1cnccn1)N1CCCC(c2ccccc2)(c2ccccc2)C1` as the compound, how does the Potency read?
**A.** The Potency was inconclusive: 17.8 µM [inhibitor, single point].

**Q.** For `COc1ccccc1N1CCN(c2nc3c(S(=O)(=O)c4ccccc4)nnn3c3ccc(Cl)cc23)CC1`, which Potency is on record?
**A.** The Potency was inconclusive: 2.24 µM [inhibitor, single point].

**Q.** With `CCOC(=O)c1scc(-c2ccccc2)c1S(=O)(=O)Nc1ccccc1OC` as the compound, how does the Potency read?
**A.** Its Potency is inconclusive: 11.2 µM [inhibitor, single point].

**Q.** Which Potency does the source give for `COc1ccc(C2Cn3nnc(C(=O)N4CCN(C(=O)c5cccc(Cl)c5)CC4)c3CO2)cc1` (stereo unspecified) here?
**A.** Its Potency is inconclusive: 17.8 µM [inhibitor, single point].

**Q.** With `COCCNC(=O)Cn1c(-c2cccs2)cc2cc(Cl)ccc21` as the compound, how does the Potency read?
**A.** Its Potency is inconclusive: 17.8 µM [inhibitor, single point].

**Q.** For `CCc1ccccc1NC(=O)CN(c1ccccc1OC)S(=O)(=O)c1ccc(C)cc1`, which Potency is on record?
**A.** The Potency was inconclusive: 17.8 µM [inhibitor, single point].

**Q.** With `O=C(NC1CCN(c2cc(-c3ccc(F)cc3)[nH]n2)CC1)c1ccc2[nH]ccc2c1` as the compound, how does the Potency read?
**A.** The Potency was inconclusive: 3.98 µM [inhibitor, single point].

**Q.** With `Cc1sc(C2C(C#N)=C(N)N(c3ccc(Cl)cc3)C3=C2C(=O)CCC3)cc1CN1CCOCC1` (stereo unspecified) as the compound, how does the Potency read?
**A.** The Potency was inconclusive: 17.8 µM [inhibitor, single point].

**Q.** With `O=C1Cc2c(-c3cccc4ccccc34)n[nH]c2CN1CCc1ccncc1` as the compound, how does the Potency read?
**A.** The Potency was inconclusive: 11.2 µM [inhibitor, single point].

**Q.** With `CC(C)c1nncn1C1CCN(S(=O)(=O)c2ccc(F)c(Cl)c2)CC1` as the compound, how does the Potency read?
**A.** The Potency was “inactive”.

**Q.** With `Cc1ccc(C2CC(=O)N(Cc3ccc(F)cc3)c3c2c(C)nn3-c2nc(C)cc(C)n2)cc1` (stereo unspecified) as the compound, how does the Potency read?
**A.** Its Potency is inconclusive: 11.2 µM [inhibitor, single point].

**Q.** With `CCc1ccc(CN2CCCC23Cc2ccccc2CNC3=O)cc1` (stereo unspecified) as the compound, how does the Potency read?
**A.** Its Potency is inconclusive: 10 µM [inhibitor, single point].

**Q.** Which Potency does the source give for `COc1ccc(Cn2c(SCC(=O)N3CCN(c4ccc(F)cc4)CC3)nc3ccccc32)cc1` here?
**A.** Its Potency is inconclusive: 10 µM [inhibitor, partial curve, poor fit].

**Q.** For `CCc1ccc(NC(=O)CSc2ccc(-c3sc(-c4ccccc4)nc3C)nn2)cc1`, which Potency is on record?
**A.** The Potency was inconclusive: 17.8 µM [inhibitor, single point].

**Q.** Which Potency does the source give for `Cc1csc(NC(=O)c2cnc3c(c2)N(C(=O)Cc2ccc(C(C)C)cc2)CCC3)n1` here?
**A.** The Potency was active: 7.08 µM.

**Q.** With `O=C(NCc1ccc(F)cc1)c1nc(-c2ccsc2)c2ccccn12` as the compound, how does the Potency read?
**A.** Its Potency is inconclusive: 14.1 µM [inhibitor, partial curve, poor fit].

**Q.** Which Potency does the source give for `COCCNC(=O)C(C)[C@@H]1CC[C@@]2(C)CC[C@H](NC(=O)CCOC)[C@@H](C)[C@@H]2[C@H]1O` (stereo partly specified) here?
**A.** Its Potency is “inactive”.

**Q.** With `Cc1ccc(C2(O)CCN(C(=O)c3ccc4ncccc4c3)CC2)nc1` as the compound, how does the Potency read?
**A.** Its Potency is active: 3.98 µM.

**Q.** Which Potency does the source give for `CCC(C(=O)NC1CCCCC1)n1c(SCc2ccccc2F)nc2ccncc21` (stereo unspecified) here?
**A.** Its Potency is inconclusive: 14.1 µM [inhibitor, partial curve, poor fit].

**Q.** With `CCOC(=O)CSc1nc2sc3c(c2c(=O)n1Cc1ccccc1)CC(C(C)C)OC3` (stereo unspecified) as the compound, how does the Potency read?
**A.** The Potency was “inactive”.

**Q.** Which Potency does the source give for `CC1(COc2cccnc2)COc2ccc(C(=O)NCc3ccc(F)cc3)cc2N1` (stereo unspecified) here?
**A.** The Potency was inconclusive: 0.708 µM [inhibitor, full curve, poor fit].

**Q.** Which Potency does the source give for `O=C(C[C@@H]1CCNC[C@@H]1Cc1cc(COc2ccccc2)on1)N1CCOCC1` here?
**A.** Its Potency is inconclusive: 6.31 µM [inhibitor, full curve, poor fit].

**Q.** Which Potency does the source give for `CCC1Oc2ccc(NC(=O)Cc3cccs3)cc2CN(C(CC)c2ccccc2)C1=O` (stereo unspecified) here?
**A.** Its Potency is inconclusive: 3.98 µM [inhibitor, full curve, poor fit].

**Q.** For `Cc1nnc([C@@H]2CC(F)(F)CN2S(=O)(=O)c2cccnc2)o1`, which Potency is on record?
**A.** Its Potency is “inactive”.

**Q.** With `OCC1CN(Cc2ccccc2)CC12CCN(C1CCC1)CC2` (stereo unspecified) as the compound, how does the Potency read?
**A.** Its Potency is inconclusive: 2.51 µM [inhibitor, partial curve].

**Q.** With `COc1ccc(NS(=O)(=O)c2cnc(N)nc2)cc1Cl` as the compound, how does the Potency read?
**A.** The Potency was inconclusive: 2.82 µM [inhibitor, full curve].

**Q.** For `COc1ccc(N2CC3CCC(C2)N3C(=O)c2ccc3c(c2)OCO3)cc1`, which Potency is on record?
**A.** Its Potency is inconclusive: 11.2 µM [inhibitor, single point].

**Q.** Which Potency does the source give for `CCn1c(CO)nnc1C1CC(NC(=O)c2sccc2N)C1` (stereo unspecified) here?
**A.** The Potency was “inactive”.

**Q.** For `COc1ccc2nc3n(c2c1)[C@@H](CNC(=O)c1ccccc1)COC3`, which Potency is on record?
**A.** The Potency was “inactive”.

**Q.** With `O=C(c1cccc(F)c1)N1CC(Oc2ccc(-c3noc(C4CCOCC4)n3)cc2)C1` as the compound, how does the Potency read?
**A.** The Potency was inconclusive: 0.891 µM [inhibitor, single point].

**Q.** For `CC(C)NC(=O)c1nc(-c2ccc(Cl)nc2)c2cnccn12`, which Potency is on record?
**A.** The Potency was inconclusive: 11.2 µM [inhibitor, partial curve].

**Q.** For `Cc1ccc(S(=O)(=O)N2CCC(n3cnnc3C)CC2)cc1F`, which Potency is on record?
**A.** Its Potency is inconclusive: 5.01 µM [inhibitor, partial curve, poor fit].
